Results reported in patent US20100168225A1, “Small-Molecule Hepatitis C Virus (HCV) NS3/4A Serine Protease Inhibitors” (priority 2007, published 2010).

Key:
HCV NS3/4A protease [1] = target: T1, HCV NS3/4A protease (Hepatitis C virus genotype 1a, UniProt P27958); assay: biochemical; type: biochemical
HCV NS3/4A protease [2] = target: T1, HCV NS3/4A protease; assay: biochemical; conditions: HPLC
HCV NS3/4A protease [3] = target: T1, HCV NS3/4A protease; conditions: for ID90: HPLC; for k0 (base) / k1 (max) / k2 (xhalf) / k3 (rate): sigmoidal fit parameter
[4] = ID50 (μM) (by kinetic assay) HCV NS3^PRO
[5] = Expt 7-37, fit did not converge after 40 iterations

SMILES: Cc1cc(=O)oc2cc(O)c(O)cc12 [Compound C3, 4-methylesculetin]
- IC50 (HCV NS3/4A protease [1]; ID50 (μM) (by kinetic assay)): > 300 µM

SMILES: O=c1ccc2cc(O)c(O)cc2o1 [Compound C4, Esculetin]
- IC50 (HCV NS3/4A protease [1]; ID50 (μM) (by kinetic assay)): 280 µM
- IC50 (HCV NS3/4A protease [1]; ID50 (μm)-by kinetic assay): 280 µM

SMILES: COc1cc2ccc(=O)oc2cc1OC [Compound C5, Scoparone]
- IC50 (HCV NS3/4A protease [1]; ID50 (μM) (by kinetic assay)): > 300 µM

SMILES: COc1cc2oc(=O)ccc2cc1O [Compound C6, Isoscopoletin]
- IC50 (HCV NS3/4A protease [1]; ID50 (μM) (by kinetic assay)): > 300 µM

SMILES: COc1cc2ccc(=O)oc2cc1O [Compound C7, Scopoletin]
- IC50 (HCV NS3/4A protease [1]; ID50 (μM) (by kinetic assay)): > 300 µM

SMILES: Cc1cc(=O)oc2c(O)c(O)ccc12 [Compound C8, 4-methyldaphnetin]
- IC50 (HCV NS3/4A protease [1]; ID50 (μM) (by kinetic assay)): 109 µM
- IC50 (HCV NS3/4A protease [1]; ID50 (μm)-by kinetic assay): 108 µM

SMILES: Cc1cc(=O)oc2cc(O)cc(O)c12 [Compound C9, 5,7-dihydroxy-4-methylcoumarin]
- IC50 (HCV NS3/4A protease [1]; ID50 (μM) (by kinetic assay)): > 300 µM

SMILES: O=c1ccc2ccc(O)c(O)c2o1 [Compound C10, Daphnetin]
- IC50 (HCV NS3/4A protease [1]; ID50): 23.8 µM
- IC50 (HCV NS3/4A protease [1]; ID50 (μM) (by kinetic assay)): 25 µM
- IC50 (HCV NS3/4A protease [1]; [4]): 25 µM
- IC50 (HCV NS3/4A protease [1]; ID50 (μm)-by kinetic assay): 25 µM

SMILES: O=c1oc2cc(O)c(O)cc2cc1O [Compound C11, 3-hydroxyesculetin]
- Ki (HCV NS3/4A protease [1]): 0.46 µM
- mechanism of inhibition (HCV NS3/4A protease [1]): non-competitive
- IC50 (HCV NS3/4A protease [1]; ID50): 3 µM
- IC50 (HCV NS3/4A protease [1]; ID50 (μM) (by kinetic assay)): 3.07 µM
- IC50 (HCV NS3/4A protease [1]; [4]): 3.07 µM
- IC50 (HCV NS3/4A protease [1]; ID50 (μm)-by kinetic assay): 3.07 µM

SMILES: CC(=O)Nc1cc2cc(OC(C)=O)c(OC(C)=O)cc2oc1=O [Compound C12, 3-aminoacyl-6,7-diacetoxycoumarin]
- IC50 (HCV NS3/4A protease [1]; ID50 (μM) (by kinetic assay)): > 300 µM
- IC50 (HCV NS3/4A protease [1]; [4]): > 300 µM

SMILES: O=c1ccc2ccc(O)cc2o1 [Compound C13, Umbelliferone]
- IC50 (HCV NS3/4A protease [1]; ID50 (μM) (by kinetic assay)): > 300 µM

SMILES: O=c1oc2ccccc2cc1O [Compound C14, 3-hydroxycoumarin]
- IC50 (HCV NS3/4A protease [1]; ID50 (μM) (by kinetic assay)): > 300 µM

SMILES: O=c1cc(O)c2ccccc2o1 [Compound C15, 4-hydroxycoumarin]
- IC50 (HCV NS3/4A protease [1]; ID50 (μM) (by kinetic assay)): > 300 µM

SMILES: Cc1c(CC(=O)O)c(=O)oc2c(O)c(O)ccc12 [Compound C16, 7,8-dihydroxy-4-methylcoumarin-3-acetic acid]
- IC50 (HCV NS3/4A protease [1]; ID50 (μM) (by kinetic assay)): > 300 µM

SMILES: COc1ccc2ccc(=O)oc2c1O [Compound C17, 7-methoxydaphnetin]
- IC50 (HCV NS3/4A protease [1]; ID50 (μM) (by kinetic assay)): > 300 µM

SMILES: COc1ccc2ccc(=O)oc2c1OC [Compound C18, 7,8-dimethoxydaphnetin]
- IC50 (HCV NS3/4A protease [1]; ID50 (μM) (by kinetic assay)): > 300 µM

SMILES: COc1cc2ccc(=O)oc2c(O)c1O [Compound C19, Fraxetin]
- IC50 (HCV NS3/4A protease [1]; ID50 (μM) (by kinetic assay)): > 300 µM

SMILES: O=c1cc(-c2ccccc2)c2cc(O)c(O)cc2o1 [Compound C20, Nordalbergin]
- IC50 (HCV NS3/4A protease [1]; ID50 (μM) (by kinetic assay)): > 300 µM

SMILES: O=c1oc2c(O)c(O)ccc2cc1O [Compound C21, 3,7,8-trihydroxycoumarin]
- IC50 (HCV NS3/4A protease [2]; ID50, Average of Expt 7-36 and 7-37): 1.61 µM
- IC50 (HCV NS3/4A protease [2]; ID50, Expt 7-36, 0.1 μM reading used as 100% control): 2.02 µM
- IC50 (HCV NS3/4A protease [2]; ID50, Expt 7-37, sigmoidal fit did not converge after 40 iterations): 1.34 µM
- ID90 (HCV NS3/4A protease [3]; Expt 7-36, 0.1 μM reading used as 100% control): ID90 = 4.41 μM
- ID90 (HCV NS3/4A protease [3]; Expt 7-37, sigmoidal fit did not converge after 40 iterations): ID90 = 6.38 μM
- k0 (base) (HCV NS3/4A protease [3]; Avg): 107.014
- k1 (max) (HCV NS3/4A protease [3]; Avg): −101.545
- k2 (xhalf) (HCV NS3/4A protease [3]; Avg): 1.278
- k3 (rate) (HCV NS3/4A protease [3]; Avg): 1.337
- k0 (base) (HCV NS3/4A protease [3]; Expt 7-36): 79.759
- k1 (max) (HCV NS3/4A protease [3]; Expt 7-36): −74.5116
- k2 (xhalf) (HCV NS3/4A protease [3]; Expt 7-36): 2.333
- k3 (rate) (HCV NS3/4A protease [3]; Expt 7-36): 0.773
- k0 (base) (HCV NS3/4A protease [3]; [5]): 285.386
- k1 (max) (HCV NS3/4A protease [3]; [5]): −280.039
- k2 (xhalf) (HCV NS3/4A protease [3]; [5]): −2.129
- k3 (rate) (HCV NS3/4A protease [3]; [5]): 2.085
- mechanism of inhibition (HCV NS3/4A protease [1]): non-competitive
- IC50 (HCV NS3/4A protease [1]; ID50): 1.6 µM
- IC50 (HCV NS3/4A protease [1]; ID50 (μM) (by kinetic assay)): 2.1 µM
- IC50 (HCV NS3/4A protease [1]; [4]): 2.1 µM

SMILES: CC(=O)Nc1cc2ccc(OC(C)=O)c(OC(C)=O)c2oc1=O [Compound C22, 3-aminoacyl-7,8-diacetoxycoumarin]
- IC50 (HCV NS3/4A protease [1]; ID50 (μM) (by kinetic assay)): 185 µM
- IC50 (HCV NS3/4A protease [1]; [4]): 185 µM

SMILES: CCOC(=O)c1cc(=O)oc2cc(O)c(OC)cc12 [FM16, Scopoletin-4-ethyl ester]
- IC50 (HCV NS3/4A protease [1]; ID50 (μM) (by kinetic assay)): 393 µM

SMILES: CCOC(=O)c1cc(=O)oc2cc(O)c(O)cc12 [MC8, Esculetin-4-ethyl ester]
- IC50 (HCV NS3/4A protease [1]; ID50): 28.6 µM
- IC50 (HCV NS3/4A protease [1]; ID50 (μM) (by kinetic assay)): 25.2 µM
- IC50 (HCV NS3/4A protease [1]; ID50 (μm)-by kinetic assay): 25.2 µM

Read-outs that look alike come from different tables or passages of the source.
